Results on 15 cell lines are retold here after the supplement of paper PMC4967469.

The IC50 comes from the fitted curve, where viability falls to half of the control; a fit beyond the top or the lowest dose is shown as a bound at that dose. AUC is the area under the same curve over the 256-fold range up to the top dose, as a fraction; values near 1 show little effect. For some assays here: Any top dose called inferred comes from the curve model; the source does not state it. For some assays here: Drugs with an entry number were screened twice under separate entries, and the two screens often disagree. Bounds are passed on as bounds.

What all share (experiment): Viability of human cancer cell lines after 72 h of drug (GDSC screen)
Compound in one assay: CC(C)c1ccccc1Cc1cc(C(=O)Nc2ccc(S(=O)(=O)c3ccccc3C(C)(C)C)cc2)c(O)c(O)c1O [TW-37]
The note with it: top dose 5 µM. How it is done: (§1)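 Human cancer cell lines in 384-well plates, medium with 10% serum, drug for 72 h over a 256-fold dose range (nine 2-fold or five 4-fold steps up to the top dose). Adherent lines were fixed and stained with the nucleic acid dye Syto60, suspension lines read with resazurin; signal relative to control wells, capped at 0 and 100%. One two-parameter sigmoid per drug and line, fitted in a mixed model over all curves with the slope shared within a line.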

Compound in the next assay: CC(O)(CS(=O)(=O)c1ccc(F)cc1)C(=O)Nc1ccc(C#N)c(C(F)(F)F)c1 [Bicalutamide]
The note with it: top dose 10 µM; screen: GDSC drug entry 1502; top dose inferred. The method, then:
as §1

Compound in a further assay: Cc1cn(-c2cc(NC(=O)c3ccc(C)c(Nc4nccc(-c5cccnc5)n4)c3)cc(C(F)(F)F)c2)cn1 [Nilotinib]
The conditions noted are these: top dose 2 µM. The method, then:
as §1

Compound in a further assay: Cc1ccc(Nc2cc(-c3cccc(N4C(=O)c5ccccc5C4=O)c3)ncn2)cc1NS(C)(=O)=O [KIN001-270]
The note with it: top dose 20 µM; top dose inferred. How it is done: as §1

Compound in another assay: S=C(NCc1ccc2c(c1)OCO2)N1CCN(c2ncnc3c2oc2ccccc23)CC1 [MP470]
The note with it: top dose 20 µM; top dose inferred. The method, then: as §1

Compound in a further assay: O=S(=O)(c1ccccc1)N(CC(F)(F)F)c1ccc(C(O)(C(F)(F)F)C(F)(F)F)cc1 [T0901317]
The note with it: top dose 10.24 µM; top dose inferred. How it is done:
as §1

The IC50 is the concentration at which inhibition is half-maximal. Consider “MOLM-16 (acute myeloid leukaemia, suspension)”, for which the AUC with TW-37 amounted to 0.45; with Bicalutamide, 0.977; with Nilotinib it was 0.93. In addition, the IC50 with TW-37 was 0.232 µM; in the assay with Bicalutamide, above 10 µM; in the assay with Nilotinib, above 2 µM.

OV-56 (ovary, adherent): the AUC in the assay with KIN001-270 was determined as 0.937; with TW-37, 0.456; with Bicalutamide, 0.984; with MP470, 0.987; with T0901317, 0.989; with Nilotinib it was 0.988. The half-inhibitory concentration (IC50) with KIN001-270 was above 20 µM; in the assay with TW-37, 0.238 µM; with Bicalutamide, above 10 µM; with MP470, above 20 µM; with T0901317 it was above 10.2 µM; with Nilotinib, above 2 µM.

As to OVK-18 (ovary, adherent), the AUC in the assay with KIN001-270 stood at 0.961; with TW-37 it was 0.315; with Bicalutamide, 0.976; with MP470 it was 0.932; with T0901317, 0.966; with Nilotinib, 0.96. Besides, the IC50 with KIN001-270 is above 20 µM; with TW-37, 0.0894 µM; with Bicalutamide, above 10 µM; with MP470, above 20 µM; with T0901317, above 10.2 µM; with Nilotinib it was above 2 µM.

For OACM5-1 (oesophagus, semi-adherent), the AUC in the assay with KIN001-270 stood at 0.866; with TW-37 it was 0.937; with Bicalutamide, 0.984; with MP470, 0.925; in the assay with T0901317, 0.913; with Nilotinib, 0.985. The IC50 in the assay with KIN001-270 was above 20 µM; with TW-37, above 5 µM; in the assay with Bicalutamide it was above 10 µM; with MP470 it was above 20 µM; with T0901317, above 10.2 µM; with Nilotinib, above 2 µM.

As to U-266 (myeloma, semi-adherent), in the assay with Bicalutamide, the AUC worked out at 0.974 and the IC50 was above 10 µM. Also, in the assay with Nilotinib, the AUC is 0.975 and the IC50 was above 2 µM.

On to CRO-AP2 (B-cell lymphoma, suspension), for which the AUC stood at 0.538 with TW-37, 0.982 in the assay with Bicalutamide and 0.927 with Nilotinib. The IC50 with TW-37 was 0.39 µM; with Bicalutamide, above 10 µM; with Nilotinib, above 2 µM.

Turning to CL-40 (large intestine, adherent), the AUC was 0.803 with TW-37, 0.96 with Bicalutamide and 0.955 with Nilotinib. Moreover, the 50% inhibitory concentration (IC50) in the assay with TW-37 is 4.92 µM; in the assay with Bicalutamide, above 10 µM; with Nilotinib it was above 2 µM.

On to JEKO-1 (B-cell lymphoma, suspension), for which the values for the AUC with TW-37, with Bicalutamide and with Nilotinib were 0.416, 0.984 and 0.928, respectively. Besides, the IC50 with TW-37 was 0.186 µM; with Bicalutamide it was above 10 µM; with Nilotinib it was above 2 µM.

As to “NCI-H1341 (small cell lung carcinoma, suspension)”, the AUC in the assay with TW-37 amounted to 0.571; with Bicalutamide, 0.984; with Nilotinib it was 0.992. The results for the IC50 in the assay with TW-37, with Bicalutamide and with Nilotinib were 0.474 µM, above 10 µM and above 2 µM, respectively.

With NCI-H835 (lung carcinoid, suspension), the AUC in the assay with TW-37 worked out at 0.667; with Bicalutamide, 0.973; with Nilotinib it was 0.97. Further, the IC50 was 0.89 µM with TW-37, above 10 µM with Bicalutamide and above 2 µM with Nilotinib.

With “KARPAS-1106P (B-cell lymphoma, suspension)”, the AUC in the assay with TW-37 amounted to 0.511; with Bicalutamide, 0.992; with Nilotinib it was 0.951. For the same cell line, the figures for the IC50 with TW-37, with Bicalutamide and with Nilotinib were 0.333 µM, above 10 µM and above 2 µM, respectively.

Consider ZR-75-30 (breast, adherent), for which, in the assay with TW-37, the AUC stood at 0.714 and the IC50 stood at 1.75 µM. For the same cell line, in the assay with Nilotinib, the AUC stood at 0.983 and the IC50 was above 2 µM.

As for SK-MEL-31 (melanoma, adherent), the AUC in the assay with TW-37 turned out to be 0.663; with Bicalutamide it was 0.966; with Nilotinib it was 0.985. Further, the results for the IC50 with TW-37, in the assay with Bicalutamide and in the assay with Nilotinib were 1.01 µM, above 10 µM and above 2 µM, respectively.

On to “NCI-H146 (small cell lung carcinoma, suspension)”, for which the results for the AUC in the assay with TW-37, with Bicalutamide and with Nilotinib were 0.617, 0.988 and 0.949, respectively. The IC50 in the assay with TW-37 was 0.609 µM; in the assay with Bicalutamide, above 10 µM; with Nilotinib, above 2 µM.

As for JHOS-4 (ovary, adherent), the AUC was 0.523 with TW-37, 0.935 with Bicalutamide and 0.979 in the assay with Nilotinib. Moreover, the IC50 with TW-37 was 0.371 µM; in the assay with Bicalutamide, above 10 µM; with Nilotinib it was above 2 µM.
